From PMC3420880
No constants are given. Whether binding was seen depends on the method and setting. Binding seen in cells or lysates may run through a third protein. Some binding calls cover weakened binding; strength is not graded here.

Chains of the proteins cited; added tags and fusions are not shown. Lines headed by an entry give the natural chain unless they say otherwise; changes in a name come on top. A line that says so, or that is headed by a name, gives the form on record, which may keep a tag or linker. Residues count along the entry.
TSHR(W) tagged with eCFP or eYFP at the C-terminal (P47750, residues 22-764): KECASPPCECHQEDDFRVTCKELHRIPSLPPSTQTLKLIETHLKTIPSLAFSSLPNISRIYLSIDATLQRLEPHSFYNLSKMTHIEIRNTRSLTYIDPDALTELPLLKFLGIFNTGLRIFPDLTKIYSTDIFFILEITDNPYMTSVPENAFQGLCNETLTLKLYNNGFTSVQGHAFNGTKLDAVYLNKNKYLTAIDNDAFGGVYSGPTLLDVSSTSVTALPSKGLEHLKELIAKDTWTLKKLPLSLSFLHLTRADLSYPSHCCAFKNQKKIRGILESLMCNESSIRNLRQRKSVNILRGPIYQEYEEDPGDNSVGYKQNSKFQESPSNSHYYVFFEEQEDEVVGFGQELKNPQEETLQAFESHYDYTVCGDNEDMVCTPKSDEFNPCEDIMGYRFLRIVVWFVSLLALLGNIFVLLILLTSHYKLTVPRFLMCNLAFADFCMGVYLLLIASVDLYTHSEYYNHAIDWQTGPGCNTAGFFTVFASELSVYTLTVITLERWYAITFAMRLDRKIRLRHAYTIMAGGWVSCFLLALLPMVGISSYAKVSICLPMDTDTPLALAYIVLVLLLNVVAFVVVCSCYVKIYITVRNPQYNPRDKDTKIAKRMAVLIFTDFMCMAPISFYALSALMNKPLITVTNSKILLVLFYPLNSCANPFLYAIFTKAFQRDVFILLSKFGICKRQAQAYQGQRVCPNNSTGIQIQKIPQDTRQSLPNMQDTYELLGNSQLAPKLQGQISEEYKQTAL
TSHR(M) (P556L) tagged with eCFP or eYFP at the C-terminal (P47750, form named): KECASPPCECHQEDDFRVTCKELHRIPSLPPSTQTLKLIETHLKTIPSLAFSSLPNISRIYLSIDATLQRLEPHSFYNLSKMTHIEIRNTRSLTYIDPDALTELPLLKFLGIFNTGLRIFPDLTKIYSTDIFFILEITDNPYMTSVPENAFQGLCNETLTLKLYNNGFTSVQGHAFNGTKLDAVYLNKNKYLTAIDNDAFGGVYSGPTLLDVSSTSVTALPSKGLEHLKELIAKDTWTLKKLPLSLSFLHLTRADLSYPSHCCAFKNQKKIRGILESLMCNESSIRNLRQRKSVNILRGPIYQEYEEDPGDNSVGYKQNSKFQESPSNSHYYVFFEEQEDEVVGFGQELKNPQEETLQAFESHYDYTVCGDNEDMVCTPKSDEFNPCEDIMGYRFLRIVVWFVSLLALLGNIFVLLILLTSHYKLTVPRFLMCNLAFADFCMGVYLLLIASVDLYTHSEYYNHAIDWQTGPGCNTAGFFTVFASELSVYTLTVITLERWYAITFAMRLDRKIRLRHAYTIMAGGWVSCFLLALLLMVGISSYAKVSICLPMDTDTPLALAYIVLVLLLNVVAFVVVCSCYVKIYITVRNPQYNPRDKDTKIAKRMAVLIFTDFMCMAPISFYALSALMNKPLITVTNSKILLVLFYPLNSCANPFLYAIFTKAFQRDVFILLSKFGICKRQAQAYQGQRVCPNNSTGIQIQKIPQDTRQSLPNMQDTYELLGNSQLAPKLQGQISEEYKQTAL

Experiments:
[1] = target: TSHR(W) tagged with eCFP or eYFP at the C-terminal (mouse) (UniProt P47750); experiment: FRET or BRET; emission FRET in single living HEK 293 cells, eCFP donor and eYFP acceptor, 72 h after transfection, regions of interest from 10 cells; without TSH
[2] = target: TSHR(W) tagged with eCFP or eYFP at the C-terminal (mouse) (UniProt P47750); experiment: FRET or BRET; emission FRET in single living HEK 293 cells, eCFP donor and eYFP acceptor, 72 h after transfection, regions of interest from 10 cells; with 1 mU/ml TSH
[3] = target: TSHR(W) tagged with eCFP or eYFP at the C-terminal (mouse) (UniProt P47750); experiment: cross-linking; dimethyl suberimidate 2 mg/ml, 30 min, on TSHR-expressing HEK 293 cells in 10 mM carbonate buffer with 0.15 M NaCl, with or without 1 mU/ml TSH; SDS-PAGE and Western blot with anti-TSHR antibody
[4] = target: TSHR(M) (P556L) tagged with eCFP or eYFP at the C-terminal (mouse) (UniProt P47750); experiment: FRET or BRET; emission FRET in single living HEK 293 cells, eCFP donor and eYFP acceptor, 72 h after transfection, regions of interest from 10 cells; without TSH
[5] = target: TSHR(M) (P556L) tagged with eCFP or eYFP at the C-terminal (mouse) (UniProt P47750); experiment: FRET or BRET; emission FRET in single living HEK 293 cells, eCFP donor and eYFP acceptor, 72 h after transfection, regions of interest from 10 cells; with 1 mU/ml TSH

binding [1] | binding [2] | binding [3] | binding [4] | binding [5] | Substance
binds | no binding (condition: with 1 mU/ml TSH) | binds |  |  | TSHR(W) tagged with eCFP or eYFP at the C-terminal (from UniProt P47750 22-764) (receptor)
binds | binds | binds | binds | binds | TSHR(M) (P556L) tagged with eCFP or eYFP at the C-terminal (from UniProt P47750 22-764) (receptor)
